Measurements as given in PubChem BioAssay AID624417 (National Center for Advancing Translational Sciences (NCATS), 2012).
The campaign covered roughly 410,000 compounds. About 6,400 (1.6%) were called active. The inconclusive results got no clear call from the source; some entries with a clear call stand among them for comparison. The call rests on the fitted dose curve; in most records, active means well fitted inhibition curve with a large enough effect; inconclusive means small, poorly fitted or top-dose-only effect; inactive means no such curve, though single readings can be large or run the other way. A potency beside an inconclusive call is a rough fit, not a confirmed value.

What follows are compounds tested against Glucagon-like peptide 1 receptor (Homo sapiens) (UniProt P43220) (assay: qHTS of GLP-1 Receptor Inverse Agonists (Inhibition Mode)). Conditions: HEK293 GLP-1R CRE-luciferase, luminescence, 24 h, GLP-1R form is constitutively active; series mostly up to 38.3 µM.
Method in brief: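 HEK293 cells stably co-expressing a cAMP-responsive luciferase reporter and constitutively active GLP-1R were seeded, incubated 12 h, then exposed to compounds for 24 h at 37 C. Luminescence was read 12 min after detection reagent; inverse agonists lower signal.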
Further: nearly all actives have a fitted effect of over 55% in size.
Potency means the concentration at half of the fitted maximal effect; tags describe the fitted curve by direction and shape.

Chain of UniProt P43220 (P43220 whole entry, looked up): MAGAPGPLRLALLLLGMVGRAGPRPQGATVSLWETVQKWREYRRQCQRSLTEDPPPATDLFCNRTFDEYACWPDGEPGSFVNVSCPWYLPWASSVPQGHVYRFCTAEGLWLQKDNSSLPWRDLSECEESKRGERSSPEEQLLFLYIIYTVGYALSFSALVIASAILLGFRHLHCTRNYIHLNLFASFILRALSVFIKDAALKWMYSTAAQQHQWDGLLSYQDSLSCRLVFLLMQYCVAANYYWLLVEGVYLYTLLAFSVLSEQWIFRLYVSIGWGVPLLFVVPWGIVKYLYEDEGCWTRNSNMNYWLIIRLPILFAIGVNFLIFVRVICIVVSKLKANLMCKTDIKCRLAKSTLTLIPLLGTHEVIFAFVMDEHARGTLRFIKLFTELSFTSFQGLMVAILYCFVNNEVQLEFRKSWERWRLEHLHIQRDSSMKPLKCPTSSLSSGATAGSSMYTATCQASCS

Potency, inconclusive:
CCCCN=C(N)/C(C(=O)OCC)=C(\O)c1ccc(OC)cc1 7.08 µM [inhibitor, partial curve, poor fit]
COc1cccc2c1OC[C@@H](CO)[C@H]2N(C)C(=O)Nc1ccc(Cl)cc1 11.2 µM [inhibitor, single point]
CCOc1ccccc1N(C(=O)c1snc(C(N)=O)c1N)C(C(=O)NCCC(C)C)c1ccco1 (stereo not drawn) 20 µM [inhibitor, single point]
O=C(Nc1ccc(Oc2cccnc2)nc1)c1ccc(C(F)(F)F)cc1 28.2 µM [inhibitor, single point]
Cc1ccc(-n2nc3c(=O)n(CCCC(=O)N4CCC(C)CC4)nc(C)c3c2C)cc1 12.6 µM [inhibitor, partial curve, poor fit]
Cc1ccc(NCC(=O)Nc2cccc(S(=O)(=O)N(C)C)c2)c(Cl)c1 28.2 µM [inhibitor, single point]
COc1ccc(CN2C(=O)C(C)N(C(=O)c3c(F)cccc3F)c3ccccc32)cc1 (stereo not drawn) 11.2 µM [inhibitor, partial curve, poor fit]
Clc1ccc(-c2nnc(NCc3ccccc3)c3ccccc23)cc1 3.16 µM [inhibitor, full curve, poor fit]
CCn1nccc1C(=O)Nc1nc2ccccc2n1CCN1CCCCC1 10 µM [inhibitor, partial curve, poor fit]
COc1ccc(C(CNCC(O)COc2c(C)ccc(C)c2C)N(C)C)cc1 (stereo not drawn) 11.2 µM [inhibitor, partial curve, poor fit]
COC(=O)c1cccc(C(=O)N2CCCC(C(=O)c3cccc(OC(C)C)c3)C2)c1 (stereo not drawn) 1.26 µM [inhibitor, full curve, poor fit]
O=C(NNc1cc(Cl)ccc1Cl)c1cccnc1Cl 2.51 µM [inhibitor, full curve, poor fit]
CC(C)(C)OC(=O)[C@H](Cc1ccccc1)NC(=O)c1[nH]cnc1C(=O)Nc1cccc(Cl)c1 12.6 µM [inhibitor, single point]
CCOC(=O)C(C)Sc1nnc(-c2ccccc2O)n1Cc1ccccc1 (stereo not drawn) 11.2 µM [inhibitor, partial curve, poor fit]
CC1(C(=O)NS(=O)(=O)c2ccc3ccccc3c2)CCN1C(=O)Cc1ccc(Cl)cc1Cl (stereo not drawn) 31.6 µM [inhibitor, single point]
O=C(Nc1ccc(F)cc1)C(c1ccccc1)N1CCN(S(=O)(=O)c2c(F)cccc2F)CC1 (stereo not drawn) 11.2 µM [inhibitor, partial curve]
COc1ccc(C(CNC(=O)c2cccc(S(=O)(=O)Nc3ccc(F)cc3)c2)N(C)C)cc1 (stereo not drawn) 15.8 µM [inhibitor, partial curve, poor fit]
N=c1n(CCN2CCOCC2)c2ccccc2n1CC(=O)c1ccc(Cl)c(Cl)c1 22.4 µM [inhibitor, single point]
CC(C)COCC(CN(Cc1ccccc1)c1ccccc1)N1CCCC1 (stereo not drawn) 15.8 µM [inhibitor, single point]
O=C(COC(=O)C1(c2ccccc2)CC1)N1CCN(c2ccc(F)cc2)CC1 12.6 µM [inhibitor, single point]
Cc1ccc(-c2nnn(CC(=O)N(Cc3cccs3)C(C(=O)NC3CCCC3)c3ccncc3)n2)cc1 (stereo not drawn) 28.2 µM [inhibitor, single point]
CCCCN1CC(COCc2ccccc2)Oc2cccc(N3CCCC3)c2S1(=O)=O (stereo not drawn) 12.6 µM [inhibitor, partial curve, poor fit]
CCOc1ccc(-c2cc(C(=O)NCCCN3CCCC3)c3ccccc3n2)cc1 14.1 µM [inhibitor, partial curve, poor fit]
COc1cc(C(O)c2nc(-c3ccc(N(C)C)cc3)cs2)ccc1F (stereo not drawn) 28.2 µM [inhibitor, single point]
O=C(c1cc(-c2ccc(F)cc2)on1)N1CCCC1 10 µM [inhibitor, single point]
CCN(Cc1ccccc1)CC(O)COc1ccccc1 (stereo not drawn) 1.58 µM [inhibitor, partial curve, poor fit]
CCc1sc(C(=O)N2CCN(CC(=O)Nc3cccc(F)c3)CC2)cc1C 28.2 µM [inhibitor, single point]
CCOc1ccc(C(=O)NCC(c2ccc(Cl)cc2)N2CCCCC2)cc1 (stereo not drawn) 11.2 µM [inhibitor, partial curve, poor fit]
CCC1(c2ccc(OC)cc2)NC(=O)N(CC(=O)N2CCc3ccccc32)C1=O (stereo not drawn) 5.01 µM [inhibitor, partial curve]
COc1ccc2nc(N3CCCC(C(=O)NCCCN4C(C)CCCC4C)C3)sc2c1 (stereo not drawn) 7.08 µM [inhibitor, partial curve, poor fit]
COc1ccccc1NC(=O)N1CCc2[nH]c3ccc(F)cc3c2C1 10 µM [inhibitor, single point]
CSCCC(NC(=O)COc1ccccc1)C(=O)N(C)CC(=O)Nc1ccc(C)cc1 (stereo not drawn) 20 µM [inhibitor, single point]
CCN(CC)CCSc1nc2c([nH]1)c(=S)n(C)c(=O)n2C 5.62 µM [inhibitor, partial curve, poor fit]

Potency, inactive:
CCOC(=O)c1cnc(N2CCN(c3cccc(C)c3C)CC2)c2ccccc12
Oc1ccccc1N1CCN(c2ncccn2)CC1

Potency, active:
COc1ccc(NC(=O)[C@H](Cc2c[nH]c3ccccc23)NC(=O)[C@@H]2Cc3ccccc3CN2)cc1 5.62 µM
Cc1csc(NC(=O)c2ccc(N3CCCC3=O)cc2)n1 2.24 µM
Cc1ccc(CN2CCCC(CO)(Cc3ccccc3C)C2)s1 (stereo not drawn) 8.91 µM
